Assay results published in ChEMBL document CHEMBL1909046, “DrugMatrix in vitro pharmacology data”.

Columns and labels:
Cytochrome P450 2E1 = Cytochrome P450 2E1 (Homo sapiens, UniProt P05181); conditions: bti-tn-5b1-4
Cytochrome P450 3A4 = Cytochrome P450 3A4 (Homo sapiens, UniProt P08684); conditions: bti-tn-5b1-4
[1] = target: Voltage-gated inwardly rectifying potassium channel KCNH2 (Homo sapiens, UniProt Q12809); conditions: hek293
Cytochrome P450 2C19 = Cytochrome P450 2C19 (Homo sapiens, UniProt P33261); conditions: bti-tn-5b1-4
Cytochrome P450 1A2 = target: T1, Cytochrome P450 1A2 (Homo sapiens, UniProt P05177); conditions: bti-tn-5b1-4
T1 sequence (P05177 whole entry): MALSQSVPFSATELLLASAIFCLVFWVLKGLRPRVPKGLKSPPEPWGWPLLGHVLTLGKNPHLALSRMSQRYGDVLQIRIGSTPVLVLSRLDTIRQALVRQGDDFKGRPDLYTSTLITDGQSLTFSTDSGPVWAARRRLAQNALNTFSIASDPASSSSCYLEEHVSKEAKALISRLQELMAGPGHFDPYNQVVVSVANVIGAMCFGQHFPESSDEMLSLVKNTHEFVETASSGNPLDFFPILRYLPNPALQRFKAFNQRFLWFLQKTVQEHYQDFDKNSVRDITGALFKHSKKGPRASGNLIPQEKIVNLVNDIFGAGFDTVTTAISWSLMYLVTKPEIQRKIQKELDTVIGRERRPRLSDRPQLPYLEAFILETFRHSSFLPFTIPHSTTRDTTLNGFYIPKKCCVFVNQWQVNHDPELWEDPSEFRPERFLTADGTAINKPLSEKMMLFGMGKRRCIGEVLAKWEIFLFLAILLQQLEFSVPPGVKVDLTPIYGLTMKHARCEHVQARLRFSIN

Cytochrome P450 2A6 = target: T2, Cytochrome P450 2A6 (Homo sapiens, UniProt P11509); conditions: bti-tn-5b1-4
T2 sequence (P11509 whole entry): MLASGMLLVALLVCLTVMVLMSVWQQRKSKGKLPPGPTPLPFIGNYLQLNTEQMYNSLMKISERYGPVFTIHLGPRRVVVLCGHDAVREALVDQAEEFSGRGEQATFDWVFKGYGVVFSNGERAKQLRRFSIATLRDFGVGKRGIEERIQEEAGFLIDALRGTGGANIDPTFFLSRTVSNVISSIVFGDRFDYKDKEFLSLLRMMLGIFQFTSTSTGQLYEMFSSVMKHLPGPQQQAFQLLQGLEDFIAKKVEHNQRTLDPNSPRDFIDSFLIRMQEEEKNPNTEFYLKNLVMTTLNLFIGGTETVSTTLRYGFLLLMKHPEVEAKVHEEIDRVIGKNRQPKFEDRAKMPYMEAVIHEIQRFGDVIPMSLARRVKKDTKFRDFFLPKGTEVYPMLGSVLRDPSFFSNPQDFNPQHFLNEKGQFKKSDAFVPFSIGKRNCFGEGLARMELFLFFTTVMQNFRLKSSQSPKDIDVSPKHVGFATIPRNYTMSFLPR

Cytochrome P450 2D6 = Cytochrome P450 2D6 (Homo sapiens, UniProt P10635); conditions: bti-tn-5b1-4
Cytochrome P450 2C9 = Cytochrome P450 2C9 (Homo sapiens, UniProt P11712); conditions: bti-tn-5b1-4
Further: in other assays of this panel Not Active means under 50% inhibition at 10 µM.

Chain of Voltage-gated inwardly rectifying potassium channel KCNH2 (Q12809 whole entry): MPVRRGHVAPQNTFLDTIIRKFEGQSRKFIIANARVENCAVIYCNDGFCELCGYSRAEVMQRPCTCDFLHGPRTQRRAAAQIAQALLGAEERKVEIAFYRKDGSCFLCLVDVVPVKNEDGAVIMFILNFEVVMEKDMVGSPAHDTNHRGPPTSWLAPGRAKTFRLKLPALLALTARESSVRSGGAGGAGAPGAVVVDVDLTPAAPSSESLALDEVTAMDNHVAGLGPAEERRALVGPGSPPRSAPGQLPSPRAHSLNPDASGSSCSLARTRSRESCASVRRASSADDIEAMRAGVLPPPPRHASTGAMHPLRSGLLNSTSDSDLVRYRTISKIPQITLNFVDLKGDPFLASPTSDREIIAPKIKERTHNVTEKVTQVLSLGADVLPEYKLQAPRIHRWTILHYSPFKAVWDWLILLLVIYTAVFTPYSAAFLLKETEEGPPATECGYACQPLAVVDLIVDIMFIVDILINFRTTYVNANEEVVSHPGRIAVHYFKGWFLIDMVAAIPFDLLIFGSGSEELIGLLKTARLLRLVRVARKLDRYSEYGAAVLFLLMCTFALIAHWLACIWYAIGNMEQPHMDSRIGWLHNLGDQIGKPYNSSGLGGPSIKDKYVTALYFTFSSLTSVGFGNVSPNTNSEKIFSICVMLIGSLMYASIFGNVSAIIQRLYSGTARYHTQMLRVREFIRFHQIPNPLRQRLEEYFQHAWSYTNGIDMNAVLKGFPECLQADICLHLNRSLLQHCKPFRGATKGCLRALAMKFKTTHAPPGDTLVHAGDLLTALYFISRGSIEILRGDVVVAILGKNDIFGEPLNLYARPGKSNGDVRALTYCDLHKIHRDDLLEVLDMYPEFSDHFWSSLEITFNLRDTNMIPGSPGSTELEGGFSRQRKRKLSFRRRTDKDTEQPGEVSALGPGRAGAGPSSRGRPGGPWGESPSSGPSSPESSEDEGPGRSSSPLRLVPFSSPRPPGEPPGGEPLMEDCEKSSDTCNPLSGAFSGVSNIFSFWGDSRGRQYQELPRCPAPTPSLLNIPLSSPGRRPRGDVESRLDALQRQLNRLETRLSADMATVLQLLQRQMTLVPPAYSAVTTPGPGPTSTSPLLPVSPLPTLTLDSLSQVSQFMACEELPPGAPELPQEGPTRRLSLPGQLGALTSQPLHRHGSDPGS
Chain of Cytochrome P450 2E1 (P05181 whole entry): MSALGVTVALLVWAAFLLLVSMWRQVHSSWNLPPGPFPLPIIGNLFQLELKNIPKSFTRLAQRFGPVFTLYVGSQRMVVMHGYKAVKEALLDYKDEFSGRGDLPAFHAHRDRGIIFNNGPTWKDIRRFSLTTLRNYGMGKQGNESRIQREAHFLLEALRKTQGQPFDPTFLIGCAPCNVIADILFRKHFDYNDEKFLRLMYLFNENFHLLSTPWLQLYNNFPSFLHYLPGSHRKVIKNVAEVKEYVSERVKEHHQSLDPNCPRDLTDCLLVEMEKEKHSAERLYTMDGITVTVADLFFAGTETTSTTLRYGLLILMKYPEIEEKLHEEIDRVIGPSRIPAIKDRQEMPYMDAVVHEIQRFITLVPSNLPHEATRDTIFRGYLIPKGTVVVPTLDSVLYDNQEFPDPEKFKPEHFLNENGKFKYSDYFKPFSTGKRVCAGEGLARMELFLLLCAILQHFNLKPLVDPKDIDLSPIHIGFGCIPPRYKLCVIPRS
Chain of Cytochrome P450 2C19 (P33261 whole entry): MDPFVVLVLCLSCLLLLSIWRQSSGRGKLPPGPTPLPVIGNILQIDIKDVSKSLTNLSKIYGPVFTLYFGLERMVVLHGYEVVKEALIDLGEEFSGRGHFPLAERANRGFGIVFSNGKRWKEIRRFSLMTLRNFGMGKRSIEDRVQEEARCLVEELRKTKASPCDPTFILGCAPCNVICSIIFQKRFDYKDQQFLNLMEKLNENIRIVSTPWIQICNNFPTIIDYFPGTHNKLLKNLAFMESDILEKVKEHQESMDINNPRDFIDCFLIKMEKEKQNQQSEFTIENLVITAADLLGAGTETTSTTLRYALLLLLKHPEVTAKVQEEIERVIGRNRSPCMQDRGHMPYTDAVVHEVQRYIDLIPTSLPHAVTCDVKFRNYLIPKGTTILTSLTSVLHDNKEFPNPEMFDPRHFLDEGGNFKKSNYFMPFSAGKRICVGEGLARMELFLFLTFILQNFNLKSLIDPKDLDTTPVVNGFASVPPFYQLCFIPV
Chain of Cytochrome P450 2D6 (P10635 whole entry): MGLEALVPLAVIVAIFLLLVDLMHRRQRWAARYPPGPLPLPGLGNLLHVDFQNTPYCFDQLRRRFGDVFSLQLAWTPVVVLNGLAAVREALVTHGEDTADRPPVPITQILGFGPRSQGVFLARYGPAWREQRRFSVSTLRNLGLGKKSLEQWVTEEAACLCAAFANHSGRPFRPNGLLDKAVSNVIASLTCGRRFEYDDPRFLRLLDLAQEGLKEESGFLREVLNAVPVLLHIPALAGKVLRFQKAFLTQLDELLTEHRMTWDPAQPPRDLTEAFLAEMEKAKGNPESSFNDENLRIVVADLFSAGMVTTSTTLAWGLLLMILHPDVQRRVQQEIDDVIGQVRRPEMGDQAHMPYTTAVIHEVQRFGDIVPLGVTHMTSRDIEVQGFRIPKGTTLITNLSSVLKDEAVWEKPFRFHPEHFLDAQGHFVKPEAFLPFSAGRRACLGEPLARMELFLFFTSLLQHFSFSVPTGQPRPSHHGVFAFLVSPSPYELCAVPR
Chain of Cytochrome P450 2C9 (P11712 whole entry): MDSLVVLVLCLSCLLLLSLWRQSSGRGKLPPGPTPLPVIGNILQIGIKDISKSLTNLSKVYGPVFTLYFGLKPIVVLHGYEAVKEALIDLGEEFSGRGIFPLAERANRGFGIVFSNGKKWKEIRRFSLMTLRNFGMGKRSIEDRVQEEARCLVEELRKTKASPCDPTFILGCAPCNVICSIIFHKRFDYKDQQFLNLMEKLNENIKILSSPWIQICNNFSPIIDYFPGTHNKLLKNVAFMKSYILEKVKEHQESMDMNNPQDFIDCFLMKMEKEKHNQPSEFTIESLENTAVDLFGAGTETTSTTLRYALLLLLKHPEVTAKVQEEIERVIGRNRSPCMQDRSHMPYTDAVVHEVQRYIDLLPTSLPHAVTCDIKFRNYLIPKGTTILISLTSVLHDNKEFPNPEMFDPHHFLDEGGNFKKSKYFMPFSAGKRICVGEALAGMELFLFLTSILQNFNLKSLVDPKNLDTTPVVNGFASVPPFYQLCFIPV
Chain of Cytochrome P450 3A4 (P08684 whole entry): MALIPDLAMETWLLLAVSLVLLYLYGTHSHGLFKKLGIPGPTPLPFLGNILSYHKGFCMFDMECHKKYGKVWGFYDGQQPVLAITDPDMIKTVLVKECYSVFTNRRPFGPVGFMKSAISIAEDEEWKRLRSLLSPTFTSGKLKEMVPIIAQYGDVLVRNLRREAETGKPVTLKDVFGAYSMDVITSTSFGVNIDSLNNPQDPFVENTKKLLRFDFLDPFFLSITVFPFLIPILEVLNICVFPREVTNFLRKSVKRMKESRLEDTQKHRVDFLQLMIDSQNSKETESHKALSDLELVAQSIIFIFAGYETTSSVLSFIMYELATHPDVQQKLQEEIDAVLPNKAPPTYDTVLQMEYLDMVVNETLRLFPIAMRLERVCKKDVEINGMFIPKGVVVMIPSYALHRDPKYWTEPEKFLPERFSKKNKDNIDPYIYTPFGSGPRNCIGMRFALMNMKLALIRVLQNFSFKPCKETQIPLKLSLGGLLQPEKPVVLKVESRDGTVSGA

CCn1cc(C(=O)O)c(=O)c2cc(F)c(N3CCN(C)CC3)cc21 [PEFLOXACIN]
Not Active: IC50 (Cytochrome P450 2E1) | Ki (Cytochrome P450 2E1) | IC50 (Cytochrome P450 3A4) | Ki (Cytochrome P450 3A4) | IC50 [1] | Ki [1] | IC50 (Cytochrome P450 2C19) | Ki (Cytochrome P450 2C19) | IC50 (Cytochrome P450 1A2) | Ki (Cytochrome P450 1A2) | IC50 (Cytochrome P450 2A6) | Ki (Cytochrome P450 2A6) | IC50 (Cytochrome P450 2D6) | Ki (Cytochrome P450 2D6) | IC50 (Cytochrome P450 2C9) | Ki (Cytochrome P450 2C9)
